Data reported in the supplement of paper PMC4604168 (melanoma cell lines).
Some of the results follow. Single values are uncertain, as repeats are few or missing.
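Also: cells treated in 1,536-well plates, then fixed and DAPI-stained, with nuclei counted from automated high-throughput microscope images.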

What follows are compounds tested on SkMel5 (assay: cell count relative to DMSO control; melanoma cells; higher = more viable cells). Conditions: library dose: standard library concentration; 72 h.
Compound `Cn1cnc2c(F)c(Nc3ccc(Br)cc3Cl)c(C(=O)NOCCO)cc21` [selumetinib] + Cc1cc([N+](=O)[O-])ccc1NS(=O)(=O)c1cc(Cl)ccc1Cl [FH535] (first compound 0.075 µM, partner dose 5 µM) has a cell count of 71.1%.
With `Cn1cnc2c(F)c(Nc3ccc(Br)cc3Cl)c(C(=O)NOCCO)cc21` [selumetinib] + COc1cc2ncnc(Nc3ccc(Oc4ccccc4)cc3)c2cc1OC [SrcI1] (first compound 0.075 µM, partner dose 10 µM) the cell count was 62.3%.
`C[C@]1(O)C[C@@H](c2nc(-c3ccc4ccc(-c5ccccc5)nc4c3)c3c(N)nccn32)C1` + CCc1ccc(CCOc2ccc(CC3SC(=O)NC3=O)cc2)nc1 [pioglitazone] (first compound 2 µM, partner dose 10 µM) showed a cell count of 75%.
`CCN(CC)CCNC(=O)c1c(C)[nH]c(/C=C2\C(=O)Nc3ccc(F)cc32)c1C` [sunitinib] + O=S(=O)(c1ccccc1)N(CC(F)(F)F)c1ccc(C(O)(C(F)(F)F)C(F)(F)F)cc1 [T0901317] (first compound 2 µM, partner dose 7 µM) was tested, and the cell count was 44.5%.
`Cn1cnc2c(F)c(Nc3ccc(Br)cc3Cl)c(C(=O)NOCCO)cc21` [selumetinib] + Oc1cc(-c2nc(-c3ccccc3)[nH]c2-c2ccncc2)ccc1Cl [L779450] (first compound 0.075 µM, partner dose 1 µM) showed a cell count of 49.5%.
With `C[C@]1(O)C[C@@H](c2nc(-c3ccc4ccc(-c5ccccc5)nc4c3)c3c(N)nccn32)C1` + N#Cc1c(O)c2c(-c3ccc(-c4ccccc4O)cc3)csc2[nH]c1=O [A769662] (first compound 2 µM, partner dose 10 µM) the cell count was 79.5%.
Work on `COc1cc([C@@H]2c3cc4c(cc3[C@@H](O[C@@H]3O[C@@H]5CO[C@@H](C)O[C@H]5[C@H](O)[C@H]3O)[C@H]3COC(=O)[C@H]23)OCO4)cc(OC)c1O` [etoposide] + N#Cc1c(O)c2c(-c3ccc(-c4ccccc4O)cc3)csc2[nH]c1=O [A769662] (first compound 0.1 µM, partner dose 10 µM) yielded a cell count of 92.2%.
`CCN(CC)CCNC(=O)c1c(C)[nH]c(/C=C2\C(=O)Nc3ccc(F)cc32)c1C` [sunitinib] + COc1ccc(-c2ccc3c(N4CCOCC4)nc(N4C[C@@H](C)O[C@@H](C)C4)nc3n2)cc1CO [KU0063794] (first compound 2 µM, partner dose 0.1 µM) gave a cell count of 34.2%.
`CCN(CC)CCNC(=O)c1c(C)[nH]c(/C=C2\C(=O)Nc3ccc(F)cc32)c1C` [sunitinib] + N#Cc1c(O)c2c(-c3ccc(-c4ccccc4O)cc3)csc2[nH]c1=O [A769662] (first compound 2 µM, partner dose 10 µM) showed a cell count of 63.5%.
`Cn1cnc2c(F)c(Nc3ccc(Br)cc3Cl)c(C(=O)NOCCO)cc21` [selumetinib] + CCc1ccc(CCOc2ccc(CC3SC(=O)NC3=O)cc2)nc1 [pioglitazone] (first compound 0.075 µM, partner dose 10 µM) gave a cell count of 70.8%.
Compound `C[C@]1(O)C[C@@H](c2nc(-c3ccc4ccc(-c5ccccc5)nc4c3)c3c(N)nccn32)C1` + COc1ccc(-c2ccc3c(N4CCOCC4)nc(N4C[C@@H](C)O[C@@H](C)C4)nc3n2)cc1CO [KU0063794] (first compound 2 µM, partner dose 0.1 µM) has a cell count of 57.6%.
Work on `Cn1cnc2c(F)c(Nc3ccc(Br)cc3Cl)c(C(=O)NOCCO)cc21` [selumetinib] + O=c1cc(-c2cccc3c2Sc2ccccc2S3)oc(N2CCOCC2)c1 [KU55933] (first compound 0.075 µM, partner dose 5 µM) yielded a cell count of 79.1%.
In the case of `Cn1cnc2c(F)c(Nc3ccc(Br)cc3Cl)c(C(=O)NOCCO)cc21` [selumetinib] + O=C(Nc1ccccc1)c1cc([N+](=O)[O-])ccc1Cl [GW9662] (first compound 0.075 µM, partner dose 10 µM), the cell count was 68.8%.
For `COc1cc([C@@H]2c3cc4c(cc3[C@@H](O[C@@H]3O[C@@H]5CO[C@@H](C)O[C@H]5[C@H](O)[C@H]3O)[C@H]3COC(=O)[C@H]23)OCO4)cc(OC)c1O` [etoposide] + COc1cc(N2CCC(N3CCN(C)CC3)CC2)ccc1Nc1ncc(Cl)c(Nc2ccccc2S(=O)(=O)C(C)C)n1 [NVP-TAE684] (first compound 0.1 µM, partner dose 0.4 µM), the cell count was 66.3%.
